# Among all 45,000 compounds or so, about 200 (0.44%) were called active. Inconclusive results (about 7%) are left out. The call rests on the fitted dose curve; in most records, active means well fitted activation curve with a large enough effect; inconclusive means small, poorly fitted or top-dose-only effect; inactive means no such curve, though single readings can be large or run the other way. Some of the results follow.
# Experiment: qHTS of TDP-43 Inhibitors: NCGC Sytravon Library Screen; further: 0% is about no effect; nearly all actives have a fitted effect of over 55% in size
# Conditions: yeast TDP-43 toxicity rescue, BacTiter-Glo growth, 24 h; series mostly up to 46.1 µM; growth rescue (activation): at the top concentration
# How it was run: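 TDP-43-expressing yeast, pregrown in raffinose, seeded at OD600 0.02 in galactose medium with compound for 24 hr at 30 deg C. Growth read by BacTiter-Glo luminescence, so rescue of toxicity appears as activation.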
row,SMILES,growth rescue (activation)
1,Cc1c(Cl)cccc1NC(=S)N(CCCN1CCOCC1)Cc1ccco1,inactive: -1.66%
2,COc1ccc(NC(=O)COc2ccccc2C(=O)NCC(c2ccccc2)N(C)C)cc1Cl (stereo not drawn),inactive: -12.1%
3,CC(=O)Nc1cc[n+](C(C)C(=O)c2ccc(Cl)cc2)cc1 (stereo not drawn),inactive: 10.7%
4,O=C(CNC(=O)c1ccccc1)N/N=C/c1cn[nH]c1-c1ccccc1,inactive: 14.4%
5,N#CC1=C(N)Oc2cc(O)ccc2C1c1cccnc1 (stereo not drawn),inactive: 7.43%
6,COc1ccc(C(=O)Nc2cccc(NC(C)=O)c2)cc1OC,inactive: 7.77%
7,Cc1ccccc1C1c2[nH]c3ccccc3c2CCN1C(=O)c1ccc(=O)n(C)n1 (stereo not drawn),inactive: -3.44%
8,COCCNC(=O)C(=O)N/N=C(\C)CC(=O)Nc1ccc2c(c1)OCO2,inactive: -4.24%
9,Cc1cc(NS(=O)(=O)c2ccc(NC(=O)C(C)Oc3ccc(C(C)C)cc3)cc2)no1 (stereo not drawn),inactive: 33.4%
10,CC(C)OC(=O)NCCOC(=O)Nc1ccccc1Cl,inactive: 29.5%
11,COc1cccc(/C=C(\CC(=O)O)c2nc3ccccc3s2)c1,inactive: -27.6%
12,Cc1cc(Br)ccc1SCC(=O)OCC(=O)NC(C)c1ccccc1 (stereo not drawn),inactive: 10.4%
13,COc1ccc(/C=C(\NC(=O)c2ccc(C)cc2)C(=O)NCCN2CCOCC2)cc1,inactive: 12.3%
14,Cc1cccc(C(C(N)=O)c2ncc(C(F)(F)F)cc2Cl)c1 (stereo not drawn),inactive: -6.71%
15,O=C(NNC(=O)C1CCN(c2ncccn2)CC1)c1ccccc1,inactive: 3.47%
16,CCN(CC)CCNC(=O)c1c(O)c2cc(OC)c(OC)cc2[nH]c1=O,inactive: 8.88%
17,O=S(=O)(c1ccc(Cl)cc1)c1nc(-c2ccco2)oc1N1CCOCC1,inactive: 7.32%
18,Cc1cc(NC(=O)CSc2nnc(-c3ccncc3)n2-c2ccccc2)no1,inactive: -11%
19,COc1ccc(/C=C2/SC(=S)N(CCCC(=O)Nc3cccc(O)c3)C2=O)cc1,inactive: -9.51%
20,CCCc1c(O)nc(SCC(=O)NCc2ccco2)[nH]c1=O,inactive: -1.48%
21,CCOC(=O)c1c(NC(=O)C(C)N2CCN(S(=O)(=O)c3cccs3)CC2)sc2c1CCC(C)C2 (stereo not drawn),inactive: 6.37%
22,CCCCSc1nnc(-c2ccc(NC(C)=O)cc2)n1C,inactive: -15.2%
23,COc1ccc(C(=O)CSc2nc(C)cc(C)n2)cc1[N+](=O)[O-],inactive: 21%
24,COc1ccc(S(=O)(=O)NC(=O)C2(C)CCN2C(=O)CCc2ccc(Cl)cc2Cl)cc1 (stereo not drawn),inactive: 17.8%
25,O=C(NCCc1ccccn1)c1ccc(OC(F)F)cc1,inactive: -3.19%
26,CCCNC(=O)NC(=O)CSc1ccc(C)cc1C,inactive: 7.75%
27,CCOc1ccc(NC(=S)NC2CC3CCC(C2)N3Cc2ccco2)cc1 (stereo not drawn),inactive: -4.74%

row,SMILES,growth rescue (activation)
1,CCN(CCCNC(=O)C1CCN(S(=O)(=O)N2CCOCC2)CC1)c1cccc(C)c1,inactive: 11.2%
2,CC(C)(C)NC(=O)CN1C(=O)/C(=C/c2ccccc2)SC1=S,inactive: -4.98%
3,COc1ccc(-c2nn(-c3ccccc3)cc2C(=O)N2CCN(C(=O)c3ccco3)CC2)cc1,inactive: 9.39%
4,CCC(CC)C(=O)N(C)c1c(C)nc2c(OCc3cccc(Cl)c3)cccn12,inactive: 14.6%
5,O=C1c2ccccc2NC(c2ccco2)N1NS(=O)(=O)c1ccccc1 (stereo not drawn),inactive: -8.52%
6,COc1cccc(/C=N/n2nnnc2N)c1O,inactive: -3.64%
7,CCN(CC)S(=O)(=O)c1cc(OC)c(C)cc1C,inactive: 2.38%
8,C[C@H](NS(=O)(=O)c1ccccc1F)C(=O)OCC(=O)Nc1ccc2c(c1)OCCO2,inactive: 14.8%
9,Cc1cccc(C)c1NC(=O)CSCC(=O)O,inactive: -40%
10,CCC(=O)c1ccc(Oc2ccc(C(=O)c3ccc(C)cc3)cc2[N+](=O)[O-])cc1,inactive: 27.3%
11,CN(Cc1ccccc1N1CCCC1)C(=O)c1cc2ccccc2o1,inactive: 6.7%
12,Cc1cc(C)n(C(=O)CNC(=O)/C=C/c2ccccc2)n1,inactive: 3.63%
13,COc1ccc(C(=O)NNC(=O)c2ccccc2[N+](=O)[O-])cc1,inactive: 13.6%
14,CC(=O)NC(c1ccc(F)c(F)c1)c1nc(-c2ccccc2)cs1 (stereo not drawn),inactive: 28.6%
15,COc1cc(C(=O)OCc2cc(=O)n3ccsc3n2)ccc1OC(C)C,inactive: 16.8%
16,CCOc1ccc2[nH]c3c(N4CCN(C(=O)c5ccco5)CC4)ncnc3c2c1,inactive: 9.68%
17,COc1ccc([N+](=O)[O-])cc1N(CC(=O)NCCSc1ccc(C)cc1)S(C)(=O)=O,inactive: -0.529%
18,CC(=O)c1ccc(N2CCN(C(=O)/C=C/c3ccc(S(=O)(=O)NCc4ccco4)cc3)CC2)cc1,inactive: 14.3%
19,Cc1ccc(S(=O)(=O)N2CCN(C)CC2)cc1C(=O)NC1CCCCC1,inactive: -5.78%
20,CC1=NN(C(N)=S)C(=O)C1N=Nc1ccc([N+](=O)[O-])cc1 (stereo not drawn),inactive: -3.86%
21,Cc1ccc(-c2nnc(SCC(=O)NNC(=O)COc3ccccc3C)n2C)cc1,inactive: -9.46%
22,COc1ccc(C(=O)NC(=S)NCc2cccnc2)cc1OC,inactive: 11.5%
23,COc1ccc(S(=O)(=O)N2CC(C)N(C(=O)N3CCOCC3)C2)cc1 (stereo not drawn),inactive: 6.85%
24,COc1cc(NC(=O)COc2ccccc2Cl)ccc1NC(=O)C(C)C,inactive: -7.45%
25,CCOC(=O)N1CCC(NC(=O)c2cc(C(=O)NC3CCN(Cc4ccccc4)CC3)ccc2CO)CC1,inactive: -11.1%
26,Cc1ccc(N2C(=O)N(c3ccc(C)cc3)C3CS(=O)(=O)CC32)cc1 (stereo not drawn),inactive: -5.3%

# — PubChem BioAssay AID1347073 (National Center for Advancing Translational Sciences (NCATS), 2019)
